Some of the results follow. These are noisy estimates, calculated here from bound and input reads.

This assay addresses T1, Pho4 (S. cerevisiae) (UniProt P07270).
T1 sequence: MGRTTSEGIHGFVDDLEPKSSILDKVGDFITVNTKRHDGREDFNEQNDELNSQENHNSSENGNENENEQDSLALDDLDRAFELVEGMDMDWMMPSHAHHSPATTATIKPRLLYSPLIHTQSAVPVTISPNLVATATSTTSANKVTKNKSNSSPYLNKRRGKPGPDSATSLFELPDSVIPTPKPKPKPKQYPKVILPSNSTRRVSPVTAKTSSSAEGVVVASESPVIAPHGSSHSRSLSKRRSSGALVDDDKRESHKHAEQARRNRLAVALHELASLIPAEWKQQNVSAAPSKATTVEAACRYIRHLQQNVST
Briefly: relative binding free energy (BET-seq); higher = weaker binding. The settings on record: reference: library average.
On to GTTTGCACGTGGTCTA, for which the “relative binding free energy” value was -0.06 kcal/mol.

Consider AACGGCACGTGAGGAT, for which the “relative binding free energy” value amounted to 0.19 kcal/mol.

As for TTTTCCACGTGAGTGG, the “relative binding free energy” value is 0.13 kcal/mol.

Consider ATTGACACGTGCGTGC, for which the “relative binding free energy” value is -0.01 kcal/mol.

Consider CTGATCACGTGATGGT, for which the “relative binding free energy” value stood at 0.19 kcal/mol.

Take GCGGGCACGTGTGTAA: the “relative binding free energy” value was determined as 0.02 kcal/mol.

For CGGTTCACGTGCGGTT, the “relative binding free energy” value is 0.21 kcal/mol.

TTCTACACGTGTTTTG: the “relative binding free energy” value stood at 0.03 kcal/mol.

GCTTGCACGTGGTTTA: the “relative binding free energy” value came out at 0.03 kcal/mol.

For AGATGCACGTGGTAGA, the “relative binding free energy” value is 0 kcal/mol.

As to GAGTTCACGTGTTTTA, the “relative binding free energy” value was 0.32 kcal/mol.

Turning to TTGGTCACGTGAATTG, the “relative binding free energy” value worked out at 0.28 kcal/mol.

In the case of ATGGGCACGTGGCATG, the “relative binding free energy” value was -0.21 kcal/mol.

Turning to ATCGTCACGTGTGTCT, the “relative binding free energy” value came out at 0.22 kcal/mol.

As to TGTTGCACGTGGGCTG, the “relative binding free energy” value is -0.16 kcal/mol.

For TTGAGCACGTGTGGCA, the “relative binding free energy” value is -0.1 kcal/mol.

As to TTGTGCACGTGGTATT, the “relative binding free energy” value is -0.01 kcal/mol.

For CTTATCACGTGGAAGG, the “relative binding free energy” value was found to be 0.18 kcal/mol.

Take GCTTTCACGTGTGACT: the “relative binding free energy” value amounted to 0.48 kcal/mol.

For TAATGCACGTGTTAGA, the “relative binding free energy” value was -0.1 kcal/mol.

With TGTCGCACGTGTCTTT, the “relative binding free energy” value was -0.03 kcal/mol.

As for TATGTCACGTGTGAAG, the “relative binding free energy” value turned out to be 0.13 kcal/mol.

For the sequence CGTGTCACGTGCAATG, the “relative binding free energy” value worked out at 0.26 kcal/mol.

For the sequence GTCGTCACGTGTTGTC, the “relative binding free energy” value amounted to 0.21 kcal/mol.

As to GTTGGCACGTGAGTGC, the “relative binding free energy” value came to 0.13 kcal/mol.

For the sequence TTTGCCACGTGAGTAT, the “relative binding free energy” value was 0.05 kcal/mol.

Consider TGAAACACGTGTGAGT, for which the “relative binding free energy” value is 0.15 kcal/mol.

Take ATGGGCACGTGGCTTT: the “relative binding free energy” value is -0.15 kcal/mol.

For the sequence AGTTGCACGTGTTGTC, the “relative binding free energy” value is -0.09 kcal/mol.

Turning to ATTAACACGTGTTCGT, the “relative binding free energy” value is -0.08 kcal/mol.

For the sequence GGTGGCACGTGATCAT, the “relative binding free energy” value is -0.14 kcal/mol.

For AGTGTCACGTGTAAGG, the “relative binding free energy” value was 0.14 kcal/mol.

For CTGGTCACGTGGAGTA, the “relative binding free energy” value came to 0.02 kcal/mol.

As to GTTGGCACGTGGTTGA, the “relative binding free energy” value is -0.09 kcal/mol.

TTTATCACGTGCTTGC: the “relative binding free energy” value was determined as 0.16 kcal/mol.

For TTTATCACGTGCTTTA, the “relative binding free energy” value was -0.03 kcal/mol.

On to TGGAGCACGTGGGCAG, for which the “relative binding free energy” value is -0.26 kcal/mol.

On to TGGTACACGTGGTAGG, for which the “relative binding free energy” value turned out to be 0.16 kcal/mol.

For CGGGTCACGTGTGCAA, the “relative binding free energy” value was 0.31 kcal/mol.

Take ATTTTCACGTGAAGGT: the “relative binding free energy” value was found to be 0.44 kcal/mol.

As to TTTTTCACGTGGTTCA, the “relative binding free energy” value amounted to 0.21 kcal/mol.

On to TTGTCCACGTGAGTGA, for which the “relative binding free energy” value was 0.24 kcal/mol.

On to AGGGGCACGTGTTCAG, for which the “relative binding free energy” value is -0.27 kcal/mol.

As to TTGAGCACGTGGTTGT, the “relative binding free energy” value is -0.04 kcal/mol.

As for GGGCACACGTGTGTCG, the “relative binding free energy” value worked out at 0.15 kcal/mol.

In the case of TTGGTCACGTGATCGT, the “relative binding free energy” value stood at 0.13 kcal/mol.

As for TGATACACGTGTAAAG, the “relative binding free energy” value is 0.12 kcal/mol.

As to TATGTCACGTGACGGT, the “relative binding free energy” value amounted to 0.13 kcal/mol.

In the case of TGTGTCACGTGCTTAT, the “relative binding free energy” value was determined as 0.02 kcal/mol.

With TAATTCACGTGGAGTC, the “relative binding free energy” value is 0.32 kcal/mol.

Regarding TTTGGCACGTGGAAGC, the “relative binding free energy” value was -0.03 kcal/mol.

In the case of CTATGCACGTGGAATT, the “relative binding free energy” value was determined as 0.17 kcal/mol.

For TTGTACACGTGCTGTA, the “relative binding free energy” value is -0.02 kcal/mol.

With AGGCGCACGTGCTGGT, the “relative binding free energy” value is -0.2 kcal/mol.

As to CTGTGCACGTGGTGAA, the “relative binding free energy” value was -0.12 kcal/mol.

Take GTTAGCACGTGGAAGT: the “relative binding free energy” value is 0.16 kcal/mol.

Turning to GTCGGCACGTGTTGCT, the “relative binding free energy” value worked out at 0.06 kcal/mol.

With GATCACACGTGGTGGA, the “relative binding free energy” value was 0.13 kcal/mol.

Turning to TTATTCACGTGACAGG, the “relative binding free energy” value is 0.36 kcal/mol.

As for CGCTGCACGTGGTAGG, the “relative binding free energy” value was -0.09 kcal/mol.

AGGGCCACGTGGCGTA: the “relative binding free energy” value is -0.27 kcal/mol.

For AAGTTCACGTGGTCTA, the “relative binding free energy” value came to 0.17 kcal/mol.

With TTCGGCACGTGTCTGG, the “relative binding free energy” value was found to be 0.01 kcal/mol.

Take ATAAGCACGTGGTAGG: the “relative binding free energy” value is -0.16 kcal/mol.

For the sequence TCATTCACGTGAGGTG, the “relative binding free energy” value stood at 0.42 kcal/mol.

Take TGGGACACGTGTAATT: the “relative binding free energy” value was found to be 0.2 kcal/mol.

In the case of TGTTACACGTGAAGAG, the “relative binding free energy” value was found to be 0.42 kcal/mol.

As to AGGGGCACGTGTGGGT, the “relative binding free energy” value is -0.17 kcal/mol.

Consider ATTCTCACGTGATATT, for which the “relative binding free energy” value amounted to 0.34 kcal/mol.

ATCGTCACGTGGAGTT: the “relative binding free energy” value was found to be 0.08 kcal/mol.

In the case of GTCTGCACGTGATGGG, the “relative binding free energy” value worked out at 0.24 kcal/mol.

As for TTAATCACGTGAGGCA, the “relative binding free energy” value amounted to 0.4 kcal/mol.

Take GATGACACGTGTGTTG: the “relative binding free energy” value turned out to be 0.11 kcal/mol.

GTTAGCACGTGAAGGC: the “relative binding free energy” value came out at 0.23 kcal/mol.

Turning to TCGTACACGTGTTGTG, the “relative binding free energy” value was 0.01 kcal/mol.

For TCGTCCACGTGGGGAT, the “relative binding free energy” value came out at 0.07 kcal/mol.

As to ATAGGCACGTGGTCTG, the “relative binding free energy” value is -0.28 kcal/mol.

TTGTACACGTGTTCAA: the “relative binding free energy” value was determined as 0.08 kcal/mol.

On to AATGTCACGTGGATTA, for which the “relative binding free energy” value was 0.24 kcal/mol.

With GGCGGCACGTGGGGGC, the “relative binding free energy” value is -0.2 kcal/mol.

Take TTACTCACGTGAGTGG: the “relative binding free energy” value came to 0.22 kcal/mol.

On to GCGTTCACGTGTGATT, for which the “relative binding free energy” value is 0.36 kcal/mol.

TTTAGCACGTGGTGCA: the “relative binding free energy” value was -0.27 kcal/mol.

Consider GGTTACACGTGATTGG, for which the “relative binding free energy” value was 0.32 kcal/mol.

Regarding TTTCTCACGTGCTTGT, the “relative binding free energy” value worked out at 0.19 kcal/mol.

Turning to CGTAGCACGTGGTTAT, the “relative binding free energy” value was -0.09 kcal/mol.

Consider AGGGGCACGTGGGCCA, for which the “relative binding free energy” value is -0.34 kcal/mol.

On to AGTGTCACGTGGTGCG, for which the “relative binding free energy” value was found to be 0.07 kcal/mol.

TTACTCACGTGGTGGT: the “relative binding free energy” value was 0.16 kcal/mol.

Turning to GAGGGCACGTGGTTTG, the “relative binding free energy” value is -0.01 kcal/mol.

In the case of ATGGGCACGTGGGCTA, the “relative binding free energy” value was -0.4 kcal/mol.

On to TTAAGCACGTGTTGTC, for which the “relative binding free energy” value worked out at 0.06 kcal/mol.

As for ACGATCACGTGTATGT, the “relative binding free energy” value was 0.18 kcal/mol.

As to GATGGCACGTGACGTT, the “relative binding free energy” value was determined as 0.14 kcal/mol.

With TTAGTCACGTGGTGCT, the “relative binding free energy” value is -0.11 kcal/mol.

As for GGAAGCACGTGTTGGC, the “relative binding free energy” value was -0.04 kcal/mol.

Regarding CGCAGCACGTGTGGGT, the “relative binding free energy” value was -0.09 kcal/mol.

Consider ATGATCACGTGGGTTT, for which the “relative binding free energy” value is 0.08 kcal/mol.

As for TGTGTCACGTGCATGG, the “relative binding free energy” value came to 0.06 kcal/mol.

For GTTACCACGTGTAGGT, the “relative binding free energy” value was -0.02 kcal/mol.

With TTAACCACGTGTTGAG, the “relative binding free energy” value is 0.03 kcal/mol.

For the sequence AGAATCACGTGTGATT, the “relative binding free energy” value was determined as 0.14 kcal/mol.

Turning to CGAGGCACGTGGTTAG, the “relative binding free energy” value is -0.12 kcal/mol.

In the case of GTGTGCACGTGAGACG, the “relative binding free energy” value amounted to 0.23 kcal/mol.

Consider GGCTGCACGTGAAGTT, for which the “relative binding free energy” value was determined as 0.26 kcal/mol.

Regarding CTGTACACGTGGGGGC, the “relative binding free energy” value is -0.22 kcal/mol.

As to GAGACCACGTGGTGTT, the “relative binding free energy” value stood at 0.15 kcal/mol.

AGATTCACGTGGCTAG: the “relative binding free energy” value was 0.23 kcal/mol.

Take TGTGGCACGTGCGAGA: the “relative binding free energy” value was -0.14 kcal/mol.

Turning to ATTGGCACGTGGGGTG, the “relative binding free energy” value is -0.3 kcal/mol.

On to TGCGGCACGTGGAGCG, for which the “relative binding free energy” value is -0.1 kcal/mol.

With TGAGTCACGTGAGCGA, the “relative binding free energy” value came out at 0.23 kcal/mol.

In the case of TGTAGCACGTGGAGCG, the “relative binding free energy” value is -0.03 kcal/mol.

As to ACTGTCACGTGCTTGT, the “relative binding free energy” value is 0 kcal/mol.

Consider TGAAGCACGTGAAGGG, for which the “relative binding free energy” value is 0.15 kcal/mol.

These data come from the BET-seq Pho4 binding data (Le et al. 2018).
